According to PMC9706486, “INOSITOL (1,3,4) TRIPHOSPHATE 5/6 KINASE1-dependent inositol polyphosphates regulate auxin responses in Arabidopsis” (Plant Physiology, 2022):
Results are given in words; binding and its absence hold for the method and conditions named. In cells and extracts the contact can be indirect. Some entries that bind do so weakly or less than the wild type. Sequences can lack the tags named with a protein.

Protein sequences, listed by entry. Tags and fused reporters are not part of them.
UniProt P05804: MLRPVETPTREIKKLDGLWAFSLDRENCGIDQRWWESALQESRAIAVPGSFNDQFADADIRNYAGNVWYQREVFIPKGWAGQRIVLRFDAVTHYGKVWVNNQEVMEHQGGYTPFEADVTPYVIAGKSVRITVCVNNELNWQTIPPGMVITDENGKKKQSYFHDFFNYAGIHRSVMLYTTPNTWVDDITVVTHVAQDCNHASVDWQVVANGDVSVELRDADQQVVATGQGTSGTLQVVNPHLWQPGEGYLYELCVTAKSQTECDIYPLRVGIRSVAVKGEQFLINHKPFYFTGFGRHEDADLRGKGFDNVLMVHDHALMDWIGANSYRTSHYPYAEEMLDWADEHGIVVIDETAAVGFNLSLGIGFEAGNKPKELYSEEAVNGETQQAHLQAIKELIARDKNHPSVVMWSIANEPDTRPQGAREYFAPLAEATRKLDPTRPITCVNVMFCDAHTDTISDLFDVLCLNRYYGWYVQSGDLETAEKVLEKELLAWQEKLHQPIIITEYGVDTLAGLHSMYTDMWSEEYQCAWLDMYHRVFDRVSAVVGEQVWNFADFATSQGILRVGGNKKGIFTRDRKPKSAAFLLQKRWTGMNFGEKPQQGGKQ

Tests used:
[1] = target: T1, nVenus-ITPK1 (Arabidopsis thaliana) (UniProt Q9SBA5); experiment: split reporter; BiFC with nVenus- and cCFP-tagged constructs co-expressed in N. benthamiana leaves by agroinfiltration; confocal microscopy about 48 h post-infiltration, YFP filter
T1 sequence: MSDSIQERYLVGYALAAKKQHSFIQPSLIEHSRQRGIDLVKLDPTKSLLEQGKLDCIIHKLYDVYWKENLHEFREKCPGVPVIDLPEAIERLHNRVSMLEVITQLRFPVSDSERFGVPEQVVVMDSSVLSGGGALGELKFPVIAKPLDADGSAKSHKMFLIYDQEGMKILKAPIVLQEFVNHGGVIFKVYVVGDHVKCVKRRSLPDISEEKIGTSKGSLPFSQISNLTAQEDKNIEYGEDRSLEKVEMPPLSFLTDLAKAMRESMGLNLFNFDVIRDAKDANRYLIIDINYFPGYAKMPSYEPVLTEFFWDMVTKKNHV

[2] = target: T2, cCFP-TIR1 (Arabidopsis thaliana) (UniProt Q570C0); experiment: as above
T2 sequence: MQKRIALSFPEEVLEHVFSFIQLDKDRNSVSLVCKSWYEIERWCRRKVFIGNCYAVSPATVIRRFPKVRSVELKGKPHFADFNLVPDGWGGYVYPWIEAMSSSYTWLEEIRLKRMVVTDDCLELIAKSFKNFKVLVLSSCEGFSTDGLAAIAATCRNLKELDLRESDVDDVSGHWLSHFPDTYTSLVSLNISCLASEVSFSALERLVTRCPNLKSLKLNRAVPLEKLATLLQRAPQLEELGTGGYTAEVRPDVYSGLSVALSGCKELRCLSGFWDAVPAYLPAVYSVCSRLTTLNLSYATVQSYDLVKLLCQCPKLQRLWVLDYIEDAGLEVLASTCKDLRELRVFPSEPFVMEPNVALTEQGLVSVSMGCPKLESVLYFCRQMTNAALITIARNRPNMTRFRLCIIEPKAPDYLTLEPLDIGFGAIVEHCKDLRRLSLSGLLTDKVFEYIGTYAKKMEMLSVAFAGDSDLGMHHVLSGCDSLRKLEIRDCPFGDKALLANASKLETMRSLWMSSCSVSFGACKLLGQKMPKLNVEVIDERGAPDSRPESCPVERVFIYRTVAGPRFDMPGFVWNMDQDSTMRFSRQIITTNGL

[3] = target: T3, ITPK1–G3GFP (INOSITOL (1,3,4) TRIPHOSPHATE 5/6 KINASE1 in translational fusion with C-terminal G3GFP) (Arabidopsis thaliana) (UniProt Q9SBA5); experiment: co-IP; total leaf extracts of transgenic Arabidopsis plants in RIPA buffer, pre-cleared with IgG agarose, anti-GFP agarose beads overnight at 4°C; immunoblot with anti-GFP or anti-TIR1 antibodies
T3 sequence: T1 sequence

[4] = target: T4, cCFP-ITPK1 (Arabidopsis thaliana) (UniProt Q9SBA5); experiment: split reporter; BiFC with nVenus- and cCFP-tagged constructs co-expressed in N. benthamiana leaves by agroinfiltration; confocal microscopy about 48 h post-infiltration, YFP filter
T4 sequence: T1 sequence

What does the source list for “BiFC construct of GUS (from UniProt P05804 1-603) (enzyme)”?
binding [1]: no binding; binding [2]: no binding

B1: TRANSPORT INHIBITOR RESPONSE1 (TIR1), endogenous (protein, UniProt Q570C0 1-594)
chain: T2 sequence
How did the binding [3] turn out when B1 was run?
Its binding is “binds”.

B2: cCFP-TIR1 (protein, UniProt Q570C0 1-594)
chain: T2 sequence
How did the binding [1] turn out when B2 was run?
Its binding is “binds”.

B3: nVenus-TIR1 (protein, UniProt Q570C0 1-594)
chain: T2 sequence
For B3, which binding [4] is on record?
The binding was “binds”.
